# Measured values from PubChem BioAssay AID624417 (National Center for Advancing Translational Sciences (NCATS), 2012).
# The campaign covered roughly 410,000 compounds. About 6,400 (1.6%) were called active. This list was built around the results that the source calls inconclusive (neither active nor inactive); the mix of calls is not that of the screen. The call rests on the fitted dose curve; in most records, active means well fitted inhibition curve with a large enough effect; inconclusive means small, poorly fitted or top-dose-only effect; inactive means no such curve, though single readings can be large or run the other way. Potencies of inconclusive entries are left out as doubtful fits.
# Target: Glucagon-like peptide 1 receptor (Homo sapiens) (UniProt P43220)
# Sequence of UniProt P43220 (P43220 whole entry, looked up): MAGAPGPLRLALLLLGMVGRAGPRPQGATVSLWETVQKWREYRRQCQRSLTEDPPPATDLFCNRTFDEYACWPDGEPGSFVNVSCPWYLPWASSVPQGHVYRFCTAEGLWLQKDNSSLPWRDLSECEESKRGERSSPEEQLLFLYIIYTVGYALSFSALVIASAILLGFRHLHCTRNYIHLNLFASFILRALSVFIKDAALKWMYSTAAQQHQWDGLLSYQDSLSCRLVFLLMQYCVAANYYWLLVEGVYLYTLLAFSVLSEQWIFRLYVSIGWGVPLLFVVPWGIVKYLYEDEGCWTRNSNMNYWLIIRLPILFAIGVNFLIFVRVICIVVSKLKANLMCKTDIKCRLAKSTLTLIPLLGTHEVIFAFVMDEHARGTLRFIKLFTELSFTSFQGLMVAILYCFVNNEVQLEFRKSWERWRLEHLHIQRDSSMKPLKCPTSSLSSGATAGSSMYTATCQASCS
# Assay: qHTS of GLP-1 Receptor Inverse Agonists (Inhibition Mode); further: nearly all actives have a fitted effect of over 55% in size
# Settings: HEK293 GLP-1R CRE-luciferase, luminescence, 24 h, GLP-1R form is constitutively active; series mostly up to 38.3 µM
# Summary of the method: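 Cells are plated, allowed 12 hours at 37 deg C, then treated with compounds for 24 hr before luciferase detection reagent is added and luminescence is read after 12 min at room temperature. The HEK293 line carries constitutively active GLP-1R with a cAMP-responsive reporter.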
# Potency means the concentration at half of the fitted maximal effect; tags describe the fitted curve by direction and shape.
row,SMILES,Potency
1,Cc1ccc(N(C(=O)c2ccccc2Cl)C2=NC(C)CS2)c(C)c1 (centres undefined),"inconclusive [inhibitor, partial curve, poor fit]"
2,COc1cc(-c2nnc(SCC3(c4ccccc4)OCCO3)o2)cc(OC)c1OC,"inconclusive [inhibitor, single point]"
3,CC(C)C[C@@H]1Cc2[nH]c(=S)[nH]c(=O)c2[C@H](CCc2ccccc2)O1,"inconclusive [inhibitor, partial curve, poor fit]"
4,O=C(NC1CCCCC1)C12CC3CC(CC(Cl)(C3)C1)C2,"inconclusive [inhibitor, single point]"
5,CCc1ccc(CN2CCC(n3nccc3NC(=O)c3ccc4c(c3)OCO4)CC2)cc1,"inconclusive [inhibitor, partial curve]"
6,Cc1ccc(CN2CCC(CNC(=O)Nc3cccc(Cl)c3C)C2)cc1 (centres undefined),"inconclusive [inhibitor, partial curve, poor fit]"
7,O=C(Nc1nc2ccccc2n1CCN1CCOCC1)c1ccc(COc2ccccc2Br)o1,"inconclusive [inhibitor, single point]"
8,CCOc1cccc(C(=O)Nc2ccc3ccccc3c2)c1,"inconclusive [inhibitor, single point]"
9,Cc1ccccc1C1N(c2nccs2)C(=O)C2CCCN21 (centres undefined),inactive
10,COc1ccc(N2CCN(C(CNC(=O)C(=O)NCCc3ccccc3)c3cccnc3)CC2)cc1 (centres undefined),inactive
11,O=[N+]([O-])c1ccc(C(O)CN2CCN(C/C=C/c3ccccc3)CC2)cc1 (centres undefined),"inconclusive [inhibitor, partial curve, poor fit]"
12,Cc1cc(C)nc(NC(=O)/C=C/c2cccs2)c1,"inconclusive [inhibitor, partial curve, poor fit]"
13,CCc1ccc(C2C(C#N)=C(N)C(C#N)(C#N)C3=CCC(C(C)(C)C)CC32)cc1 (centres undefined),"inconclusive [inhibitor, single point]"
14,COc1ccccc1C(C[N+](=O)[O-])c1c(N)n(C)c(=O)n(C)c1=O (centres undefined),active: 2.82 µM
15,O=C(CCN1C(=O)c2ccccc2C1=O)Oc1ccc2ccccc2c1,inactive
16,CC(=O)c1ccc(Nc2nc(=O)c3cccnc3s2)cc1,inactive
17,O=C(CN(C(=O)CSc1nnc(COc2ccccc2)o1)c1ccc(F)cc1)NC1CCCCC1,"inconclusive [inhibitor, single point]"
18,Clc1cccc(Cl)c1CSc1nnc(/C=C/c2ccccc2)o1,"inconclusive [inhibitor, single point]"
19,CCC(=O)NC(=S)Nc1cccc(NC(=O)c2ccccc2C)c1,"inconclusive [inhibitor, single point]"
20,Clc1cccc(Cl)c1Cn1ccc(C2CC2)n1,"inconclusive [inhibitor, single point]"
21,Cc1cc(C(=O)C(C)OC(=O)c2ccc(NC(=O)CC#N)cc2)c(C)n1-c1ccc(OC(F)F)cc1 (centres undefined),"inconclusive [inhibitor, single point]"
22,Cc1nn(Cc2ccc(Cl)cc2)c(=O)n1N(C)c1ncc(C(F)(F)F)cc1Cl,"inconclusive [inhibitor, partial curve, poor fit]"

row,SMILES,Potency
1,Cc1cc(C)cc(N2CC(c3nc(-c4cccc(Cl)c4)no3)CC2=O)c1 (centres undefined),"inconclusive [inhibitor, partial curve]"
2,CC(=O)N1CCCC(C(=O)c2ccc(Oc3ccccc3)cc2)C1 (centres undefined),"inconclusive [inhibitor, partial curve, poor fit]"
3,O=C(COc1cccc2cccnc12)Nc1ccccc1,inactive
4,Cc1ccc(S(=O)(=O)N2CCCC2)cc1C(=O)N1CCN(Cc2ccccc2)CC1,"inconclusive [inhibitor, partial curve, poor fit]"
5,Cc1ccc(S(=O)(=O)N2CCC(=O)N(C(COCc3ccc(C(F)(F)F)cc3)Cc3ccccc3)CC2)cc1 (centres undefined),"inconclusive [inhibitor, partial curve, poor fit]"
6,O=C(NCCN1C(=O)S/C(=C\c2ccc(Cl)c(Cl)c2)C1=O)C1COc2ccccc2O1 (centres undefined),"inconclusive [inhibitor, partial curve]"
7,CN(CCOC(=O)c1cccc(Br)c1)C(C)(C)C,inactive
8,CC(=O)Nc1ccc(NC(=S)NC(=O)C2CCCC2)cc1,inactive
9,O=C(CCl)Nc1cc2[nH]c(=O)[nH]c2cc1Br,"inconclusive [inhibitor, single point]"
10,C=C(C1=CCN(S(=O)(=O)C(C)(C)C)[C@@H]1CCO)c1ccccc1,active: 7.94 µM
11,O=C(NCc1cccnc1)c1ccc2c(c1)N(Cc1ccccc1)CCS2,"inconclusive [inhibitor, partial curve, poor fit]"
12,CCc1ccc2nc3nc(C)cc(C)c3c(N)c2c1,"inconclusive [inhibitor, single point]"
13,Cc1onc(-c2c(F)cccc2Cl)c1C(=O)N1CCN(c2ncc(Br)cn2)CC1,"inconclusive [inhibitor, partial curve, poor fit]"
14,O=C(NCC(c1ccco1)N1CCCC1)c1ccc(S(=O)(=O)Nc2ccc(F)cc2)cc1 (centres undefined),"inconclusive [inhibitor, single point]"
15,CCOc1ccc(CCNC(=O)c2cc3c(s2)-c2ccccc2OC3)cc1OCC,inactive
16,CCOC(=O)C(=NC(C)(C)C)NNc1cc(Cl)ccc1Cl,"inconclusive [inhibitor, single point]"
17,COc1ccc(-c2cc(C(F)(F)F)nc(SCC(=O)N3CCC(C)CC3)n2)cc1,inactive
18,O=C(c1nn2c(C(F)(F)F)cc(-c3ccco3)nc2c1Br)N1CCCc2ccccc21,"inconclusive [inhibitor, partial curve, poor fit]"
19,Cc1cccc(NNC(=O)c2c(F)cccc2Cl)c1,"inconclusive [inhibitor, full curve, poor fit]"
20,S=C(NCCN1CCOCC1)N1CCN(c2cccc(Cl)c2)CC1,"inconclusive [inhibitor, single point]"
21,COc1ccc2oc(=O)c(-c3csc(Nc4ccc(O)cc4)n3)cc2c1,"inconclusive [inhibitor, single point]"
22,COC(=O)c1cc(Br)c(=O)n(CCN2CCCC2)c1,inactive

row,SMILES,Potency
1,CN(Cc1ccccc1)C(=O)CN1CCN(C(c2ccccc2)c2ccccc2)CC1,"inconclusive [inhibitor, partial curve, poor fit]"
2,CN1CC(=O)N(CC(=O)Nc2ccc(SC(F)F)cc2)C1=O,"inconclusive [inhibitor, single point]"
3,Cn1c(=O)oc2cc(S(=O)(=O)Nc3ccccc3O)ccc21,inactive
4,COc1cccc(OC)c1OCC(O)CN1CCN(c2ccccc2)CC1 (centres undefined),inactive
5,COc1ccc(N2C(=O)CSC2c2cccc(F)c2)c(OC)c1 (centres undefined),"inconclusive [inhibitor, partial curve, poor fit]"
6,COc1ccc(C(C)(NC(C)=O)c2nc(-c3ccc(F)c(Cl)c3)cs2)cc1 (centres undefined),"inconclusive [inhibitor, single point]"
7,Cc1ccccc1S(=O)(=O)N1C[C@H]2CON(C)[C@H]2C[C@H]1c1cccc(Oc2ccccc2)c1,"inconclusive [inhibitor, partial curve, poor fit]"
8,COc1ccc(NC(=S)NC(=O)c2cncc(Br)c2)cc1,"inconclusive [inhibitor, single point]"
9,CC[n+]1c(C)cc(C)n1-c1ccccc1,"inconclusive [inhibitor, single point]"
10,Cc1ccccc1NCc1cccn1-c1nnc(N2CCC(C)CC2)s1,"inconclusive [inhibitor, single point]"
11,COC(=O)c1scc(-c2ccc(C)cc2)c1S(=O)(=O)Nc1ccc(N(C)C)cc1,"inconclusive [inhibitor, partial curve, poor fit]"
12,O=C(NC1CC2CCC(C1)N2Cc1ccccc1)c1cccc(F)c1 (centres undefined),inactive
13,Cc1cc(C)cc(NC(=O)C2C3C=CC4(O3)C2C(=O)N(CCCN2CCCC2)C4C(=O)NC2CCCC(C)C2C)c1 (centres undefined),"inconclusive [inhibitor, single point]"
14,CCOC(=O)C1=C(CN2CCN(c3ccccc3F)CC2)NC(=O)NC1c1ccc(Cl)cc1 (centres undefined),inactive
15,Cc1[nH]c2ccccc2c1C(=O)C(C)OC(=O)c1ccccc1NCCO (centres undefined),"inconclusive [inhibitor, partial curve, poor fit]"
16,Cc1cc(C(=O)CSc2nnc(NCc3ccccc3)s2)c(C)n1C,"inconclusive [inhibitor, full curve]"
17,COC(=O)N1[C@H](C)C=C[C@]1(Cc1ccccc1)C(=O)NCCCNc1ncc(C(F)(F)F)cc1Cl,"inconclusive [inhibitor, single point]"
18,COc1cccc(/C=C/c2onc(C)c2S(=O)(=O)N2CCC(C(=O)N3CCC(C)CC3)CC2)c1,inactive
19,Cc1cc2ccccc2n1-c1ccc(C(=O)N2CCC(C(=O)NCc3ccccc3Cl)CC2)s1,"inconclusive [inhibitor, single point]"
20,C=CCC1[C@H](C)[C@H]2[C@@H]3CC[C@@H](C3)[C@H]2CN1S(=O)(=O)c1ccc(C)cc1 (some centres undefined),"inconclusive [inhibitor, single point]"
